{
  "source": "the RNAGym collection of RNA variant scans (doi:10.7554/elife.90254)",
  "parents": {"B1": {"name": "LINE1-mini (parent)", "chain": "GGCAGAGCUCAACACAGCGUGGCAAAGUGGCUGUGGCUAGACUGCC"}},
  "note": "The source gives no read counts; variants with many changes may rest on few reads.",
  "data": [
    {"variants_of": "B1", "test": "self-cleavage, relative activity (ratio to wild type); higher = more cleavage; in vitro, sequencing; the parent is a self-cleaving ribozyme", "values": [
      {"variant": "G36A C37U G44U", "self-cleavage": 0.23},
      {"variant": "A41G U43C G44A", "self-cleavage": 0.09},
      {"variant": "U32G G40U G44U", "self-cleavage": 0.04},
      {"variant": "G33U G36C U38A C46U", "self-cleavage": 0.09},
      {"variant": "C31A G33A U34G C46G", "self-cleavage": 0.02},
      {"variant": "C31U U38A A39G", "self-cleavage": 0.02},
      {"variant": "U38A A39G C42A", "self-cleavage": 0.03},
      {"variant": "U32G G33A G44A", "self-cleavage": 0.12},
      {"variant": "G30U U34A G36C", "self-cleavage": 0.05},
      {"variant": "G29U U38C C45A C46U", "self-cleavage": 0.06},
      {"variant": "C31U G35A C45A", "self-cleavage": 0.03},
      {"variant": "G33U U34A C46U", "self-cleavage": 0.05},
      {"variant": "G35A G36U C42G", "self-cleavage": 0.03},
      {"variant": "G33U U34G G40A C46U", "self-cleavage": 0.03},
      {"variant": "G30A U32A C42A", "self-cleavage": 0.06},
      {"variant": "G36U A39G A41U", "self-cleavage": 0.02},
      {"variant": "G30C C37U G44C", "self-cleavage": 0.06},
      {"variant": "G30C C31A C45U", "self-cleavage": 0.94},
      {"variant": "G30C C31A C45A", "self-cleavage": 0.2},
      {"variant": "G30A U38G A39G", "self-cleavage": 0.01},
      {"variant": "C31A C42U C45A C46G", "self-cleavage": 0.05},
      {"variant": "G35C U43A G44C", "self-cleavage": 0.03},
      {"variant": "G30A G33C U34G G36U A41C U43G", "self-cleavage": 0.09},
      {"variant": "G35A C37A C45G", "self-cleavage": 0.19},
      {"variant": "G30U C31A U43G C46G", "self-cleavage": 0.28},
      {"variant": "G33U C37A A41C", "self-cleavage": 0.06},
      {"variant": "G29U G36U A39U", "self-cleavage": 0.03},
      {"variant": "G29U G40A C42A", "self-cleavage": 0.03},
      {"variant": "G36U A39G U43G", "self-cleavage": 0.01},
      {"variant": "C31U G33U G44U C45U", "self-cleavage": 0.17},
      {"variant": "C37U C42A U43C", "self-cleavage": 0.06},
      {"variant": "G30A U38A C46A", "self-cleavage": 0.17},
      {"variant": "C31A G40C G44C", "self-cleavage": 0.02},
      {"variant": "C37G U38G G44U", "self-cleavage": 0.02},
      {"variant": "U34C G36C A39C", "self-cleavage": 0.01},
      {"variant": "G29U U34G A39C G44C", "self-cleavage": 0.01},
      {"variant": "G35A A41G C45U", "self-cleavage": 0.12},
      {"variant": "C31U A41U G44A", "self-cleavage": 0.03},
      {"variant": "G30C C31U C37G", "self-cleavage": 0.07},
      {"variant": "C37U G44A C45U", "self-cleavage": 0.14},
      {"variant": "U32C U34G U38C", "self-cleavage": 0.04},
      {"variant": "A39C A41U C42U", "self-cleavage": 0.24},
      {"variant": "G35C C37A C46U", "self-cleavage": 0.02},
      {"variant": "G30C C37A G40C", "self-cleavage": 0.24},
      {"variant": "C31G G36A C42G", "self-cleavage": 0.02},
      {"variant": "C31A G40U C45U", "self-cleavage": 0.03},
      {"variant": "U32G C42A G44U", "self-cleavage": 0.02},
      {"variant": "G30U U32A G33A C42G", "self-cleavage": 0.12},
      {"variant": "G33A G35U C42G", "self-cleavage": 0.02},
      {"variant": "C42U G44A C46G", "self-cleavage": 0.09},
      {"variant": "C31G G33A U43C G44C", "self-cleavage": 0.05},
      {"variant": "G30U C42A U43A", "self-cleavage": 0.05},
      {"variant": "G30C U32C G33C G36U", "self-cleavage": 0.01},
      {"variant": "G30A G33U A41G", "self-cleavage": 0.04},
      {"variant": "C31G G36U A39C", "self-cleavage": 0.04},
      {"variant": "U32C G33C A41U", "self-cleavage": 0.02},
      {"variant": "G30A C31G C45U", "self-cleavage": 0.05},
      {"variant": "G29U G40U C46A", "self-cleavage": 0.14},
      {"variant": "C31G A41U G44U C46G", "self-cleavage": 0.01},
      {"variant": "G36A A39C A41U", "self-cleavage": 0.87},
      {"variant": "G35U C37G C46U", "self-cleavage": 0.04},
      {"variant": "G35A G40A C42A C46A", "self-cleavage": 0.06},
      {"variant": "C37U A41C C46U", "self-cleavage": 0.02},
      {"variant": "C31A G40A C46G", "self-cleavage": 0.04},
      {"variant": "C31U G40A A41C", "self-cleavage": 0.02},
      {"variant": "G30U G33A G35U", "self-cleavage": 0.12},
      {"variant": "A39G A41C C46G", "self-cleavage": 0},
      {"variant": "C31U U34G C37U", "self-cleavage": 0.02},
      {"variant": "G36U A39C C46U", "self-cleavage": 0.04},
      {"variant": "G29U U38A C45U C46U", "self-cleavage": 0.86},
      {"variant": "U32A U43A C45A", "self-cleavage": 0.02},
      {"variant": "U32G G33U G36U C45A", "self-cleavage": 0.09},
      {"variant": "U38G A41G C42U", "self-cleavage": 0},
      {"variant": "C31A G36U C42U", "self-cleavage": 0.03},
      {"variant": "G30C C31A U32A G33C U34A A39C G40U", "self-cleavage": 0.06},
      {"variant": "G30A A41U U43G", "self-cleavage": 0.19},
      {"variant": "U32G U34A A39C", "self-cleavage": 0.04},
      {"variant": "G33A U43G C45A", "self-cleavage": 0.03},
      {"variant": "U32G G33U A39G A41G G44C", "self-cleavage": 0.05},
      {"variant": "G29U U38G A39G", "self-cleavage": 0.01},
      {"variant": "C31A G36U G44C", "self-cleavage": 0.05},
      {"variant": "C31G G36A U43A", "self-cleavage": 0.02},
      {"variant": "U32A U38C C45U", "self-cleavage": 0.01},
      {"variant": "A41U C42A G44C", "self-cleavage": 0.03},
      {"variant": "G30U G33A G36C", "self-cleavage": 0.2},
      {"variant": "A41G C42A C45U", "self-cleavage": 0.08},
      {"variant": "C37U G40U C46U", "self-cleavage": 0.02},
      {"variant": "U38A G40U C46G", "self-cleavage": 0.22},
      {"variant": "G35C G40U C42A", "self-cleavage": 0.02},
      {"variant": "U32A A39C C42U", "self-cleavage": 0.04},
      {"variant": "G36C A41C G44C", "self-cleavage": 0.08},
      {"variant": "C31A C37A A39G G40A A41C C42U U43G G44C C46A", "self-cleavage": 0.02},
      {"variant": "C37A A39U A41U", "self-cleavage": 0.11},
      {"variant": "G29U U38G C42G", "self-cleavage": 0.01},
      {"variant": "C37U U38A G40C", "self-cleavage": 0.12},
      {"variant": "C31A U32G G35C U38A", "self-cleavage": 0.04},
      {"variant": "G30U U34G U43A", "self-cleavage": 0.04},
      {"variant": "C31U U32G G40U", "self-cleavage": 0.04},
      {"variant": "G36U C37A C42G", "self-cleavage": 0.07},
      {"variant": "U34A C37U G40U", "self-cleavage": 0.03},
      {"variant": "C31G C45G C46G", "self-cleavage": 0.05},
      {"variant": "G33A U34G C45G", "self-cleavage": 0.07},
      {"variant": "G30U G44C C46A", "self-cleavage": 0.12},
      {"variant": "G30C C31U G33U C46G", "self-cleavage": 0.03},
      {"variant": "C37A A39G G40A", "self-cleavage": 0.02},
      {"variant": "G30U G40U G44A C45G", "self-cleavage": 0.05},
      {"variant": "G30U U38C C42A", "self-cleavage": 0.1},
      {"variant": "U32A G36U A41G C42U", "self-cleavage": 0.1},
      {"variant": "C31U U32A C37A A39G C46A", "self-cleavage": 0.03},
      {"variant": "G30U C31G U32A G35C", "self-cleavage": 0.01},
      {"variant": "C31U A39C C45A", "self-cleavage": 0.01},
      {"variant": "U32A C42U U43C G44C", "self-cleavage": 0.01},
      {"variant": "U34G G36U A41U", "self-cleavage": 0.1},
      {"variant": "G30A C37U A41C", "self-cleavage": 0.02},
      {"variant": "C31G G36A G40U U43G C45U", "self-cleavage": 0.1},
      {"variant": "U32C G36C C42A", "self-cleavage": 0.04},
      {"variant": "C37U U38A A39G", "self-cleavage": 0.05},
      {"variant": "U34G G36C A41C", "self-cleavage": 0.01},
      {"variant": "U34G G36C A41G", "self-cleavage": 0.03},
      {"variant": "C31G U43A G44A", "self-cleavage": 0.05},
      {"variant": "G30A U34G G35U C37A", "self-cleavage": 0.07},
      {"variant": "G35U A39U C45A", "self-cleavage": 0.04},
      {"variant": "G30C C42A C46A", "self-cleavage": 0.08},
      {"variant": "G33U U34C G35A C45A", "self-cleavage": 0.08},
      {"variant": "G30A C31A C37U", "self-cleavage": 0.05},
      {"variant": "G30A G40C C45G", "self-cleavage": 0.07},
      {"variant": "G35U U38A G40U A41C", "self-cleavage": 0.1},
      {"variant": "G30A C31A U34C C45G", "self-cleavage": 0.03},
      {"variant": "U38A G44C C45U C46A", "self-cleavage": 0.02},
      {"variant": "U32C U38C A41U G44C", "self-cleavage": 0},
      {"variant": "G30A G36A C37U U38G G44C", "self-cleavage": 0.07},
      {"variant": "G35A A39G A41C C45A", "self-cleavage": 0.04},
      {"variant": "U32A G35U C42A U43A", "self-cleavage": 0.02},
      {"variant": "U32A G40C C42A", "self-cleavage": 0.04}
    ]}
  ]
}
